Data reported in the supplement of paper PMC8728848.
The list shows a part of the results.

What was measured:
Assay in all cases: glycan array binding signal (z-score within array); higher = stronger binding
Settings in all cases: glycan notation: IUPAC condensed, linker removed
[1] = biological target: Neu5Ac(a2-3)Gal(b1-4)GlcNAc(b1-6)GalNAc
How it was run: (§1)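 The Consortium for Functional Glycomics database supplied 3228 glycan arrays, of which those lacking an available protein sequence were dropped. The binding signal, a within-array Z-score, was averaged across arrays of the same protein sequence and across linkers. Negative scores can be read as non-binding.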

[2] = biological target: Neu5Ac(a2-3)Gal(b1-4)GlcNAc(b1-6)[Gal(b1-3)]GalNAc
How it was run: as §1

[3] = biological target: Neu5Ac(a2-3)Gal(b1-4)GlcNAc(b1-6)[Neu5Ac(a2-3)Gal(b1-3)]GalNAc
How it was run: as §1

[4] = biological target: Neu5Ac(a2-3)Gal(b1-4)GlcNAc6S
How it was run: as §1

[5] = biological target: Neu5Ac(a2-3)Gal(b1-4)[Fuc(a1-3)]GlcNAc
How it was run: as §1

[6] = biological target: Neu5Ac(a2-3)Gal(b1-4)[Fuc(a1-3)]GlcNAc(b1-2)Man
How it was run: as §1

[7] = biological target: Neu5Ac(a2-3)Gal(b1-4)[Fuc(a1-3)]GlcNAc(b1-3)Gal
How it was run: as §1

[8] = biological target: Neu5Ac(a2-3)Gal(b1-4)[Fuc(a1-3)]GlcNAc(b1-3)Gal(b1-4)GlcNAc
How it was run: as §1

[9] = biological target: Neu5Ac(a2-3)Gal(b1-4)[Fuc(a1-3)]GlcNAc(b1-3)Gal(b1-4)[Fuc(a1-3)]GlcNAc(b1-3)Gal(b1-4)[Fuc(a1-3)]GlcNAc
How it was run: as §1

[10] = biological target: Neu5Ac(a2-3)Gal(b1-4)[Fuc(a1-3)]GlcNAc(b1-3)GalNAc
How it was run: as §1

[11] = biological target: Neu5Ac(a2-3)Gal(b1-4)[Fuc(a1-3)]GlcNAc(b1-6)[Gal(b1-3)]GalNAc
How it was run: as §1

[12] = biological target: Neu5Ac(a2-3)Gal(b1-4)[Fuc(a1-3)]GlcNAc(b1-6)[Neu5Ac(a2-3)Gal(b1-3)]GalNAc
How it was run: as §1

[13] = biological target: Neu5Ac(a2-3)Gal(b1-4)[Fuc(a1-3)]GlcNAc6S
How it was run: as §1

[14] = biological target: Neu5Ac(a2-3)Gal6S(b1-4)GlcNAc
How it was run: as §1

[15] = biological target: Neu5Ac(a2-3)Gal6S(b1-4)[Fuc(a1-3)]GlcNAc
How it was run: as §1

Neu5Ac(a2-3)GalNAc = biological target: Neu5Ac(a2-3)GalNAc
How it was run: as §1

[16] = biological target: Neu5Ac(a2-3)GalNAc(b1-4)GlcNAc
How it was run: as §1

[17] = biological target: Neu5Ac(a2-3)[GalNAc(b1-4)]Gal(b1-4)Glc
How it was run: as §1

[18] = biological target: Neu5Ac(a2-3)[GalNAc(b1-4)]Gal(b1-4)GlcNAc
How it was run: as §1

[19] = biological target: Neu5Ac(a2-3)[GalNAc(b1-4)]Gal(b1-4)GlcNAc(b1-3)GalNAc
How it was run: as §1

[20] = biological target: Neu5Ac(a2-3)[Neu5Ac(a2-6)]GalNAc
How it was run: as §1

Neu5Ac(a2-6)Gal = biological target: Neu5Ac(a2-6)Gal
How it was run: as §1

[21] = biological target: Neu5Ac(a2-6)Gal(b1-3)GlcNAc(b1-3)[Gal(b1-4)GlcNAc(b1-6)]Gal(b1-4)Glc
How it was run: as §1

Neu5Ac(a2-6)Gal(b1-4)Glc = biological target: Neu5Ac(a2-6)Gal(b1-4)Glc
How it was run: as §1

[22] = biological target: Neu5Ac(a2-6)Gal(b1-4)GlcNAc
How it was run: as §1

[23] = biological target: Neu5Ac(a2-6)Gal(b1-4)GlcNAc(b1-2)Man
How it was run: as §1

[24] = biological target: Neu5Ac(a2-6)Gal(b1-4)GlcNAc(b1-2)Man(a1-3)Man(b1-4)GlcNAc(b1-4)GlcNAc
How it was run: as §1

[25] = biological target: Neu5Ac(a2-6)Gal(b1-4)GlcNAc(b1-2)Man(a1-3)[Gal(b1-4)GlcNAc(b1-2)Man(a1-6)]Man(b1-4)GlcNAc(b1-4)GlcNAc
How it was run: as §1

[26] = biological target: Neu5Ac(a2-6)Gal(b1-4)GlcNAc(b1-2)Man(a1-3)[GlcNAc(b1-2)Man(a1-6)]Man(b1-4)GlcNAc(b1-4)GlcNAc
How it was run: as §1

[27] = biological target: Neu5Ac(a2-6)Gal(b1-4)GlcNAc(b1-2)Man(a1-3)[GlcNAc(b1-4)][Neu5Ac(a2-6)Gal(b1-4)GlcNAc(b1-2)Man(a1-6)]Man(b1-4)GlcNAc(b1-4)GlcNAc
How it was run: as §1

[28] = biological target: Neu5Ac(a2-6)Gal(b1-4)GlcNAc(b1-2)Man(a1-3)[Man(a1-6)]Man(b1-4)GlcNAc(b1-4)GlcNAc
How it was run: as §1

[29] = biological target: Neu5Ac(a2-6)Gal(b1-4)GlcNAc(b1-2)Man(a1-3)[Neu5Ac(a2-3)Gal(b1-4)GlcNAc(b1-2)Man(a1-6)]Man(b1-4)GlcNAc(b1-4)GlcNAc
How it was run: as §1

[30] = biological target: Neu5Ac(a2-6)Gal(b1-4)GlcNAc(b1-2)Man(a1-3)[Neu5Ac(a2-6)Gal(b1-4)GlcNAc(b1-2)Man(a1-6)]Man(b1-4)GlcNAc(b1-4)GlcNAc
How it was run: as §1

[31] = biological target: Neu5Ac(a2-6)Gal(b1-4)GlcNAc(b1-2)Man(a1-3)[Neu5Ac(a2-6)Gal(b1-4)GlcNAc(b1-2)Man(a1-6)]Man(b1-4)GlcNAc(b1-4)[Fuc(a1-6)]GlcNAc
How it was run: as §1

[32] = biological target: Neu5Ac(a2-6)Gal(b1-4)GlcNAc(b1-2)Man(a1-6)Man(b1-4)GlcNAc(b1-4)GlcNAc
How it was run: as §1

[33] = biological target: Neu5Ac(a2-6)Gal(b1-4)GlcNAc(b1-2)Man(a1-6)[Gal(b1-4)GlcNAc(b1-2)Man(a1-3)]Man(b1-4)GlcNAc(b1-4)GlcNAc
How it was run: as §1

[34] = biological target: Neu5Ac(a2-6)Gal(b1-4)GlcNAc(b1-2)Man(a1-6)[GlcNAc(b1-2)Man(a1-3)]Man(b1-4)GlcNAc(b1-4)GlcNAc
How it was run: as §1

[35] = biological target: Neu5Ac(a2-6)Gal(b1-4)GlcNAc(b1-2)Man(a1-6)[Man(a1-3)]Man(b1-4)GlcNAc(b1-4)GlcNAc
How it was run: as §1

[36] = biological target: Neu5Ac(a2-6)Gal(b1-4)GlcNAc(b1-2)[Neu5Ac(a2-6)Gal(b1-4)GlcNAc(b1-4)]Man(a1-3)[GlcNAc(b1-4)][Neu5Ac(a2-6)Gal(b1-4)GlcNAc(b1-2)[Neu5Ac(a2-6)Gal(b1-4)GlcNAc(b1-6)]Man(a1-6)]Man(b1-4)GlcNAc(b1-4)GlcNAc
How it was run: as §1

[37] = biological target: Neu5Ac(a2-6)Gal(b1-4)GlcNAc(b1-2)[Neu5Ac(a2-6)Gal(b1-4)GlcNAc(b1-4)]Man(a1-3)[GlcNAc(b1-4)][Neu5Ac(a2-6)Gal(b1-4)GlcNAc(b1-4)Man(a1-6)]Man(b1-4)GlcNAc(b1-4)GlcNAc
How it was run: as §1

[38] = biological target: Neu5Ac(a2-6)Gal(b1-4)GlcNAc(b1-2)[Neu5Ac(a2-6)Gal(b1-4)GlcNAc(b1-6)]Man(a1-6)[Neu5Ac(a2-6)Gal(b1-4)GlcNAc(b1-2)Man(a1-3)][GlcNAc(b1-4)]Man(b1-4)GlcNAc(b1-4)GlcNAc
How it was run: as §1

[39] = biological target: Neu5Ac(a2-6)Gal(b1-4)GlcNAc(b1-3)Gal(b1-3)GlcNAc
How it was run: as §1

[40] = biological target: Neu5Ac(a2-6)Gal(b1-4)GlcNAc(b1-3)Gal(b1-4)GlcNAc
How it was run: as §1

[41] = biological target: Neu5Ac(a2-6)Gal(b1-4)GlcNAc(b1-3)Gal(b1-4)GlcNAc(b1-2)Man(a1-3)[Neu5Ac(a2-6)Gal(b1-4)GlcNAc(b1-3)Gal(b1-4)GlcNAc(b1-2)Man(a1-6)]GalNAc
How it was run: as §1

[42] = biological target: Neu5Ac(a2-6)Gal(b1-4)GlcNAc(b1-3)Gal(b1-4)GlcNAc(b1-3)Gal(b1-4)GlcNAc
How it was run: as §1

[43] = biological target: Neu5Ac(a2-6)Gal(b1-4)GlcNAc(b1-3)Gal(b1-4)GlcNAc(b1-3)Gal(b1-4)GlcNAc(b1-2)Man(a1-3)[Neu5Ac(a2-6)Gal(b1-4)GlcNAc(b1-3)Gal(b1-4)GlcNAc(b1-3)Gal(b1-4)GlcNAc(b1-2)Man(a1-6)]GalNAc
How it was run: as §1

B1: PX9937F-bfa-516-16-516 (Bacteroides fragilis) (protein)
chain: LDIDPTSSIADSNYWKTEAQFSTFNVGLHALLRECSFNFFLLGEPRADIYGDVPFGGEATQGMERLPFNTINKENTGISNFAGMYKVINQINLMIAKTKETTVLSEAGKNYYLGEAYGMRAYLYFHLLRSWGDVILYLDYTNGASLDLSNLSKAASPAEEVMKQIKEDITASEKGFGSDYSFKYGRYYWSMAATQMLKGEVYLWSGRQMGGGTADYTTAKTALQSIVSNANVSLQDDFSKVFAYNNKDNSEIIFSIRNAKDEYNMWDDRFRQNLVPQQAYMTSTYCNKEGVSFKDLPEGQLNGLIRLQIRYDLYNKAFRDGDTRKDASMTAVYQKQQDGTVKYIAPFCNKYQGVLLDGASQRSFLNDYPIYRYADCLLLLAEAKALLGEDPTAEINQVRERAYGKEFFEANKATLAYPNDKGDFYTDNKYMSGDEDPLEAILKERMREFMFEGKRWYDLRLLGADYVTKRTSAVATRLLWPINESVLTDNPALKQTPGYQN
[1]
  glycan array binding signal (z-score): 0.348
[2]
  glycan array binding signal (z-score): -0.2
[3]
  glycan array binding signal (z-score): -0.386
[4]
  glycan array binding signal (z-score): -0.3
[5]
  glycan array binding signal (z-score): -0.331
[6]
  glycan array binding signal (z-score): -0.273
[7]
  glycan array binding signal (z-score): -0.167
[8]
  glycan array binding signal (z-score): 0.286
[9]
  glycan array binding signal (z-score): -0.138
[10]
  glycan array binding signal (z-score): 0.329
[11]
  glycan array binding signal (z-score): 0.748
[12]
  glycan array binding signal (z-score): -0.116
[13]
  glycan array binding signal (z-score): -0.258
[14]
  glycan array binding signal (z-score): -0.093
[15]
  glycan array binding signal (z-score): -0.32
Neu5Ac(a2-3)GalNAc
  glycan array binding signal (z-score): -0.194
[16]
  glycan array binding signal (z-score): -0.2
[17]
  glycan array binding signal (z-score): -0.278
[18]
  glycan array binding signal (z-score): 0.098
[19]
  glycan array binding signal (z-score): -0.277
[20]
  glycan array binding signal (z-score): -0.255
Neu5Ac(a2-6)Gal
  glycan array binding signal (z-score): 0.025
[21]
  glycan array binding signal (z-score): -0.348
Neu5Ac(a2-6)Gal(b1-4)Glc
  glycan array binding signal (z-score): 0.133
[22]
  glycan array binding signal (z-score): -0.083
[23]
  glycan array binding signal (z-score): -0.194
[24]
  glycan array binding signal (z-score): 0.091
[25]
  glycan array binding signal (z-score): -0.251
[26]
  glycan array binding signal (z-score): -0.019
[27]
  glycan array binding signal (z-score): -0.425
[28]
  glycan array binding signal (z-score): -0.23
[29]
  glycan array binding signal (z-score): -0.219
[30]
  glycan array binding signal (z-score): 0.28
[31]
  glycan array binding signal (z-score): -0.009
[32]
  glycan array binding signal (z-score): 1.35
[33]
  glycan array binding signal (z-score): -0.217
[34]
  glycan array binding signal (z-score): 0.354
[35]
  glycan array binding signal (z-score): 0.046
[36]
  glycan array binding signal (z-score): -0.095
[37]
  glycan array binding signal (z-score): 0.207
[38]
  glycan array binding signal (z-score): -0.153
[39]
  glycan array binding signal (z-score): -0.221
[40]
  glycan array binding signal (z-score): -0.312
[41]
  glycan array binding signal (z-score): -0.072
[42]
  glycan array binding signal (z-score): -0.435
[43]
  glycan array binding signal (z-score): 0.284
